Results: article PMC4256259
These are yes or no findings as the source states them, for the method shown. In cells and extracts the contact can be indirect. Some results given as binding are weak or reduced against the parent protein; the word gives no strength. Tags and fused reporters may be left off the sequences shown. Values belong to the binder of their own block, whether it stands above or below them.

Legend:
Ltv1-GFP (S. cerevisiae) [1] = biological target: T1, Ltv1-GFP (S. cerevisiae) (UniProt P34078); test: co-IP; as a1, with RNase A in the cell lysates
T1 sequence: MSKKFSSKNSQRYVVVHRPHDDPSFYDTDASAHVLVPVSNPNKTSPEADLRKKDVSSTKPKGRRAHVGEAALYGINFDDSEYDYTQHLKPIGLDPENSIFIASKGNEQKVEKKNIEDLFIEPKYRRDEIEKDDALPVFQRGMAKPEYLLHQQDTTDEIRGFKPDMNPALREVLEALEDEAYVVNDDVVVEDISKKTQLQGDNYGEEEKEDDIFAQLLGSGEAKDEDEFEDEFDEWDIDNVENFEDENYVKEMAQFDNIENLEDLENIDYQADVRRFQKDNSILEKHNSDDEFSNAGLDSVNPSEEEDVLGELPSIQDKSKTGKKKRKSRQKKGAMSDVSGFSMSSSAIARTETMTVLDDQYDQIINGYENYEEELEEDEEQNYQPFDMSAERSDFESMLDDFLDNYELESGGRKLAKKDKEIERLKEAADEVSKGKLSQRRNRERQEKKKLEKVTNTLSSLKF

Ltv1-GFP (S. cerevisiae) [2] = biological target: T1, Ltv1-GFP (S. cerevisiae); test: co-IP; GFP-tagged baits purified with GFP-Trap from yeast cell lysates in IP buffer (20 mM Tris-HCl pH 7.5, 5 mM MgCl2, 150 mM potassium acetate, 1 mM DTT, 0.2% Triton X-100); no RNase A; endogenous Rrp12 detected by Western blot
Nob1-GFP (S. cerevisiae) = biological target: T2, Nob1-GFP (S. cerevisiae) (UniProt Q08444); test: as above
T2 sequence: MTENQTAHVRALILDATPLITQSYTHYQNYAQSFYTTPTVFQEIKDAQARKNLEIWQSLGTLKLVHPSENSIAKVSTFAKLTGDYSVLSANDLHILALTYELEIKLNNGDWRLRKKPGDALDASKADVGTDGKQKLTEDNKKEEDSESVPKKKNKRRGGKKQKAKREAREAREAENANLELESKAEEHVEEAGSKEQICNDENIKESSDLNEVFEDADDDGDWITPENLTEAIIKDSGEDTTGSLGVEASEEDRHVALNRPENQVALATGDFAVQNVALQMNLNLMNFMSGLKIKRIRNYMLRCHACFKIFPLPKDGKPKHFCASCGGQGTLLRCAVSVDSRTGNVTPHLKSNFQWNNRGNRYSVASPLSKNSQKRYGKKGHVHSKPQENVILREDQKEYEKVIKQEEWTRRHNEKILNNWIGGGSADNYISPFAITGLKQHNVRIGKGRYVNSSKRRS

Rix1-GFP (S. cerevisiae) = biological target: T3, Rix1-GFP (S. cerevisiae) (UniProt P38883); test: as above
T3 sequence: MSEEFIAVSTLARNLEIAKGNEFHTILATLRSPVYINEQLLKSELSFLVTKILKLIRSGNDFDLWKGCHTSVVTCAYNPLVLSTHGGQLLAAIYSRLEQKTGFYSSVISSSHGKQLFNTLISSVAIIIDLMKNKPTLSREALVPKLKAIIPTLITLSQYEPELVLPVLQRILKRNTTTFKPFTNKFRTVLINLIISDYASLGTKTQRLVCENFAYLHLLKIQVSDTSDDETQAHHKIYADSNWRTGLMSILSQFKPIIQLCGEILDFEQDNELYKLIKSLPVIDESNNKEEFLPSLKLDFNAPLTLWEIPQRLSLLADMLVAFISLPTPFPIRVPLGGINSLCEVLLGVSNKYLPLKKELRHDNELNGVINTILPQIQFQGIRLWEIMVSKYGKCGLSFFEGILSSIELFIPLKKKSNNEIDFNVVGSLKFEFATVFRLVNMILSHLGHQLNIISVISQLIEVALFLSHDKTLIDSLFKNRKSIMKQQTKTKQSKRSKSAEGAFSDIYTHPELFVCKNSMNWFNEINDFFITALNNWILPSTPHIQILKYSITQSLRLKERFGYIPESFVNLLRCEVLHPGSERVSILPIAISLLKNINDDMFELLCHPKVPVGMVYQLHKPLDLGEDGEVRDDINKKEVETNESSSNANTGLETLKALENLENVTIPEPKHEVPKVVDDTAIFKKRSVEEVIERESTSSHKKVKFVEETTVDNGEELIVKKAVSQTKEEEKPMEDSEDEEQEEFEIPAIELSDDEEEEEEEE

Ssf1-GFP (S. cerevisiae) = biological target: T4, Ssf1-GFP (S. cerevisiae) (UniProt P38789); test: as above
T4 sequence: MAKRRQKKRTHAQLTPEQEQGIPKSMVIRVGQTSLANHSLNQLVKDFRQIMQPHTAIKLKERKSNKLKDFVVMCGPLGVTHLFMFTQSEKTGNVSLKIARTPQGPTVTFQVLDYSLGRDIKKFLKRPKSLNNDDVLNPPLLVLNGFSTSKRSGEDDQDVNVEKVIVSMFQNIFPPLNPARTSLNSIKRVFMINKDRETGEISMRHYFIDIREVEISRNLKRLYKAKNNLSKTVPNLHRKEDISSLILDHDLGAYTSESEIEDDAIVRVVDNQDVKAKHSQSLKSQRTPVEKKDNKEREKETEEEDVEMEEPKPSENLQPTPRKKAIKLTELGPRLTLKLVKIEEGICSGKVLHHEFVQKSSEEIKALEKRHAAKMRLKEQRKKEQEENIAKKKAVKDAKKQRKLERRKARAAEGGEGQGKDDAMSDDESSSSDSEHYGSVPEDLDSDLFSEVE

Tsr1-GFP (S. cerevisiae) = biological target: T5, Tsr1-GFP (S. cerevisiae) (UniProt Q07381); test: co-IP; Tsr1-GFP purified with GFP-Trap from yeast lysates, in the presence and absence of Rrp12 (GAL::HA-rrp12 depletion); Mex67 detected by Western blot
T5 sequence: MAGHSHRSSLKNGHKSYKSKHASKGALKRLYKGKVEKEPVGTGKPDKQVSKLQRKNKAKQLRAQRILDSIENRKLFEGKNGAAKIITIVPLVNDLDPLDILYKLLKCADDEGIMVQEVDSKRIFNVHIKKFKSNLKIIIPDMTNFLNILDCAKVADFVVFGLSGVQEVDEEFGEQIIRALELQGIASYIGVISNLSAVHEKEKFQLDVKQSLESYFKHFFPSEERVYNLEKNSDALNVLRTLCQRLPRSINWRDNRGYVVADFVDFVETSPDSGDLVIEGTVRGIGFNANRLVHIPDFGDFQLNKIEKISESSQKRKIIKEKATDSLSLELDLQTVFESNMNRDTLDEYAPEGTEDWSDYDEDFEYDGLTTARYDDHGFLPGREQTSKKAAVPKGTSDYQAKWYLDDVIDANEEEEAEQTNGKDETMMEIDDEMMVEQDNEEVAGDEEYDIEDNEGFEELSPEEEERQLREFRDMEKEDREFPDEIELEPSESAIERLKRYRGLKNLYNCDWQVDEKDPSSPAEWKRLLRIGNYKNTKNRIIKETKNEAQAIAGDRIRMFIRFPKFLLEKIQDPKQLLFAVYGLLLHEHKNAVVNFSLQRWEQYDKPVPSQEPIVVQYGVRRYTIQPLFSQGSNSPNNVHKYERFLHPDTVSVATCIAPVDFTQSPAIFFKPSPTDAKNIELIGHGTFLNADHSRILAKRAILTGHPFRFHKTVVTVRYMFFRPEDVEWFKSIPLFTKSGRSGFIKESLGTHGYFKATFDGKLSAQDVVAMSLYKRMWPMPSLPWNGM

- binding (Ltv1-GFP (S. cerevisiae) [1]): binds
- binding (Ltv1-GFP (S. cerevisiae) [2]): binds
- binding (Nob1-GFP (S. cerevisiae)): no binding
- binding (Rix1-GFP (S. cerevisiae)): no binding
- binding (Ssf1-GFP (S. cerevisiae)): no binding
B1: Rrp12 (endogenous) (protein, UniProt Q12754 1-1228)
chain: MDQDKVAFLLELEDKLAKIRSQVNSKLENQKHIAIILTAVEENIAGQATNDVSKNIVNYIISFMSLLDQAVDPSTHEIKDIQLASSSTYLLDLIFHYSPKVLLRSKFSEILTKIAPCITAEKANAPLIRAAIGCLESLLIAQDAQAWNNTYDLNVTPKRGLQGILELSLDVRPKVRKRALDAVHAVLLNPPVAPTAEHVAAVFVADFCDKQLAGILNDLSNLSNKQLKAQKTKEDINASVMRSLRLITSVVSTGQWPSSQIEPLCDVLLGVTKSSEQYLVSASFECFESMFKTMAETTISSGLAENKYLRVLDTIFALKPSNVDTLLTKSWIAVVIKGMSTYATHQPLKALRKIPGVFHIMCTYLASETPEVYQAASQCLISILSESVKDDLLLYTPSVDEKVFKNVDEIISQIAKTFIDFLSIRYSHCSREILKILVAAFNKFRYRSNPHFLKSLKIVDTWRVNEEQFMDLRNEIELVIGASISAMGPEMILAEAPLNLDNPSSERPGRAWLLPLIRDYTKNANLATFQNELAPYIKSFQSKFDKVPEESIQLRVFQTIVDQIWSTLPRFCELPMDLRESFTDEFASELSSLLYSEVELRTTICHALKVLAESNVSYAEESSSHNVLLLQRFPISEAQKNIEYLSTKSTNLLAVLFNVYTQTTPNARSYILETIDQYLKITSKEDLEKTFNNVCGLLKNSMNEESSGNVNKEKKKPQLTATLLDLIICMITYLPVSSYSALFSMFSLTVNSADALIQKRAYRIITKLSELKSGSTAVAQFISDIENVMVDSASSVQTSAKAARLTAIKTIVELLPLDHLDFIVRTVAEVILSTKDVNEKSRETAFDTLICMGRKMNEPNGIIKLFQIPGYDPTTPDQSSSISEFFKIISAGLIGESQHMVSSSITGYACLVFEFKNELDSGILMDIYDTIELYLTSNSREIVKSAIGFTKVCVLGLPEELMRPKVPELLLKLLRWSHEHTGHFKAKVKHIIERLIRRFGYDYIEANFPEEDRRLLTNIRKMRNRNKRKDEEVTTGVSDVAATKGSRFMSAFDEAVYGSDEENDNGSDQEENVAGGKMKNGAKQFIVESGDNPLDLLDSQTLAHISSTRPKKFNKNQNRARFNDDAFNFDSEGKLVVKGQPKPSTNVDDPLSAVTSGINAYLEAVKSGPVRGQRNKLKFRKNGKDSDEFGDDDDGEKDSRLMRGRVNQGNKIGKHNKKGPKFKSRKKL

- binding (Tsr1-GFP (S. cerevisiae)): binds
B2: Mex67 (endogenous) (protein, UniProt Q99257 1-599)
chain: MSGFHNVGNINMMAQQQMQQNRIKISVRNWQNATMNDLINFISRNARVAVYDAHVEGPLVIGYVNSKAEAESLMKWNGVRFAGSNLKFELLDNNGASAGTSDTISFLRGVLLKRYDPQTKLLNLGALHSDPELIQKGVFSSISTQSKMFPAMMKLASTEKSLIVESVNLADNQLKDISAISTLAQTFPNLKNLCLANNQIFRFRSLEVWKNKFKDLRELLMTNNPITTDKLYRTEMLRLFPKLVVLDNVIVRDEQKLQTVYSLPMKIQQFFFENDALGQSSTDFATNFLNLWDNNREQLLNLYSPQSQFSVSVDSTIPPSTVTDSDQTPAFGYYMSSSRNISKVSSEKSIQQRLSIGQESINSIFKTLPKTKHHLQEQPNEYSMETISYPQINGFVITLHGFFEETGKPELESNKKTGKNNYQKNRRYNHGYNSTSNNKLSKKSFDRTWVIVPMNNSVIIASDLLTVRAYSTGAWKTASIAIAQPPQQQASVLPQVASMNPNITTPPQPQPSVVPGGMSIPGAPQGAMVMAPTLQLPPDVQSRLNPVQLELLNKLHLETKLNAEYTFMLAEQSNWNYEVAIKGFQSSMNGIPREAFVQF
